{
  "source": "the supplement of paper PMC11880418",
  "note": "Where a name gives a salt, the structure may show the parent alone. The list shows a part of the results. The data scatter; read single values as rough.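 Also: High-content imaging of ALDEFLUOR-stained cells with Hoechst-labelled nuclei in 384-well plates, triplicate wells, scored as Z-score against 0.1% DMSO vehicle, negative meaning fewer ALDHbr cells.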",
  "data": [
    {"system": "PANC1", "assay": "ALDHbr (CSC) cell proportion score relative to DMSO vehicle (ratio to DMSO); breast (SUM159) / gastric (MKN45) / pancreatic (PANC1) / colon cancer lines; ALDHbr cells have high ALDH activity and are rich in cancer stem cells (CSC); higher = more CSC (ALDHbr) cells remaining", "conditions": "10 µM; 72 h", "values": [
      {"smiles": "CC(C)(CO)C(O)C(=O)NCCCO", "note": "(stereo not drawn) [Panthenol (D)]", "ALDHbr": 0.896},
      {"smiles": "C=C1c2cccc(O)c2C(O)=C2C(=O)[C@]3(O)C(O)=C(C(N)=O)C(=O)[C@@H](N(C)C)[C@@H]3[C@@H](O)[C@H]12", "note": "[Methacycline hydrochloride]", "ALDHbr": 0.617},
      {"smiles": "C[C@H]1NC(=O)NC1=O", "note": "[Methylhydantoin-5-(D)]", "ALDHbr": 0.894},
      {"smiles": "C=CC1=C(C(=O)O)N2C(=O)[C@@H](NC(=O)/C(=N\\OCC(=O)O)c3csc(N)n3)[C@H]2SC1", "note": "[Cefixime]", "ALDHbr": 0.792},
      {"smiles": "CN(C)CCc1c[nH]c2ccc(C[C@H]3COC(=O)N3)cc12", "note": "[Zolmitriptan]", "ALDHbr": 0.916},
      {"smiles": "CC(C)CN(C[C@@H](O)[C@H](Cc1ccccc1)NC(=O)O[C@H]1CCOC1)S(=O)(=O)c1ccc(N)cc1", "note": "[Amprenavir]", "ALDHbr": 0.861},
      {"smiles": "O=C(N/N=C/c1ccc([N+](=O)[O-])o1)c1ccc(O)cc1", "note": "[Nifuroxazide]", "ALDHbr": 0.124},
      {"smiles": "CC1=C(/C=C/C(C)=C/C=C/C(C)=C/C(=O)O)C(C)(C)CCC1", "note": "[Retinoic acid]", "ALDHbr": 2.04},
      {"smiles": "CN(C)CCCN1c2ccccc2CCc2ccccc21", "note": "[Imipramine hydrochloride]", "ALDHbr": 1.39},
      {"smiles": "CCCCOc1cc(C(=O)NCCN(CC)CC)c2ccccc2n1", "note": "[Dibucaine]", "ALDHbr": 0.825},
      {"smiles": "CCCCCCCN(CC)CCCC(O)c1ccc(NS(C)(=O)=O)cc1", "note": "(stereo not drawn) [Ibutilide fumarate]", "ALDHbr": 0.861},
      {"smiles": "CC(C)NCC(O)c1cc(O)cc(O)c1", "note": "(stereo not drawn) [Metaproterenol sulfate, orciprenaline sulfate]", "ALDHbr": 0.886},
      {"smiles": "CCCC1C(=O)N2C(N(C)C)=Nc3ccc(C)cc3N2C1=O", "note": "(stereo not drawn) [Azapropazone]", "ALDHbr": 0.811},
      {"smiles": "N=C(N=C(N)N)N1CCOCC1", "note": "[Moroxidine hydrochloride]", "ALDHbr": 0.934},
      {"smiles": "CC(C)NC[C@H](O)COc1cccc2ccccc12", "note": "[(S)-propranolol hydrochloride]", "ALDHbr": 1.04},
      {"smiles": "Cc1cccc(CN2CCN(C(c3ccccc3)c3ccc(Cl)cc3)CC2)c1", "note": "(stereo not drawn) [Meclozine dihydrochloride]", "ALDHbr": 0.985},
      {"smiles": "CCN(CC)CCNC(C(=O)OCCC(C)C)c1ccccc1", "note": "(stereo not drawn) [Camylofine chlorhydrate]", "ALDHbr": 0.961},
      {"smiles": "C[C@]12C=CC(=O)C=C1CC[C@H]1[C@@H]3C[C@@H](O)[C@](O)(C(=O)CO)[C@@]3(C)C[C@H](O)[C@@]12F", "note": "[Triamcinolone]", "ALDHbr": 0.588},
      {"smiles": "OC(CCCN1CCCCC1)(c1ccccc1)c1ccccc1", "note": "[Diphenidol hydrochloride]", "ALDHbr": 0.872},
      {"smiles": "CCN(CC)C(=S)SSC(=S)N(CC)CC", "note": "[Disulfiram]", "ALDHbr": 0.966},
      {"smiles": "CC(=O)OCC1=C(C(=O)O)N2C(=O)[C@@H](NC(=O)Cc3cccs3)[C@H]2SC1", "note": "[Cephalothin sodium salt]", "ALDHbr": 0.806},
      {"smiles": "CN(C)CCOC(c1ccccc1)c1ccccc1.Cn1c(=O)c2[nH]c(Cl)nc2n(C)c1=O", "note": "[Dimenhydrinate]", "ALDHbr": 0.806},
      {"smiles": "CN(N=O)C(=O)N[C@H]1C(O)O[C@H](CO)[C@@H](O)[C@@H]1O", "note": "(mixture of isomers) [Streptozotocin]", "ALDHbr": 0.912},
      {"smiles": "CCCCCN(C)CCC(O)(P(=O)(O)O)P(=O)(O)O", "note": "[Ibandronate sodium]", "ALDHbr": 1.27},
      {"smiles": "CN(CCCN1c2ccccc2CCc2ccccc21)CC(=O)c1ccc(Cl)cc1", "note": "[Lofepramine]", "ALDHbr": 1.05},
      {"smiles": "CN(C)CCC[C@@]1(c2ccc(F)cc2)OCc2cc(C#N)ccc21", "note": "[Escitalopram oxalate]", "ALDHbr": 0.86},
      {"smiles": "Cc1cnc(C(=O)NCCc2ccc(S(=O)(=O)NC(=O)NC3CCCCC3)cc2)cn1", "note": "[Glipizide]", "ALDHbr": 1.05},
      {"smiles": "Cc1ncc(CO)c(CO)c1O", "note": "[Pyridoxine hydrochloride]", "ALDHbr": 0.958},
      {"smiles": "CC(=O)[C@H]1CC[C@H]2[C@@H]3C=CC4=CC(=O)CC[C@@]4(C)[C@@H]3CC[C@]12C", "note": "[Dydrogesterone]", "ALDHbr": 0.663},
      {"smiles": "CO[C@H]1C[C@H](O[C@H]2[C@H](C)[C@@H](O[C@@H]3O[C@H](C)C[C@H](N(C)C)[C@H]3OC(C)=O)[C@@H](C)C[C@@]3(CO3)C(=O)[C@H](C)[C@@H](OC(C)=O)[C@@H](C)[C@@H](C)OC(=O)[C@@H]2C)O[C@@H](C)[C@@H]1OC(C)=O", "note": "[Troleandomycin]", "ALDHbr": 0.829},
      {"smiles": "CCCCOc1ccc(CC(=O)NO)cc1", "note": "[Bufexamac]", "ALDHbr": 0.54},
      {"smiles": "Nc1ncn(C2OC(CO)C(O)C2O)c(=O)n1", "note": "(stereo not drawn) [Azacytidine-5]", "ALDHbr": 0.997},
      {"smiles": "COc1cc([C@@H]2c3cc4c(cc3[C@@H](O[C@@H]3O[C@@H]5CO[C@@H](C)O[C@H]5[C@H](O)[C@H]3O)[C@H]3COC(=O)[C@H]23)OCO4)cc(OC)c1O", "note": "[Etoposide]", "ALDHbr": 0.77}
    ]}
  ]
}
